Over roughly 33,000 sequences, “E-score (-0.5 to 0.5)” has its median near -0.016; the highest 2% begin near 0.32. This is one part of the list.
molecular target: T1, Stp1 (UniProt B3LFK1); experiment: PBM E-score (8-mer binding enrichment) (E-score (-0.5 to 0.5)); higher = stronger / more preferred TF binding; most listed sequences are background and not binding sites; details: protein concentration: 200 nM; construct: GST-full length
T1 sequence: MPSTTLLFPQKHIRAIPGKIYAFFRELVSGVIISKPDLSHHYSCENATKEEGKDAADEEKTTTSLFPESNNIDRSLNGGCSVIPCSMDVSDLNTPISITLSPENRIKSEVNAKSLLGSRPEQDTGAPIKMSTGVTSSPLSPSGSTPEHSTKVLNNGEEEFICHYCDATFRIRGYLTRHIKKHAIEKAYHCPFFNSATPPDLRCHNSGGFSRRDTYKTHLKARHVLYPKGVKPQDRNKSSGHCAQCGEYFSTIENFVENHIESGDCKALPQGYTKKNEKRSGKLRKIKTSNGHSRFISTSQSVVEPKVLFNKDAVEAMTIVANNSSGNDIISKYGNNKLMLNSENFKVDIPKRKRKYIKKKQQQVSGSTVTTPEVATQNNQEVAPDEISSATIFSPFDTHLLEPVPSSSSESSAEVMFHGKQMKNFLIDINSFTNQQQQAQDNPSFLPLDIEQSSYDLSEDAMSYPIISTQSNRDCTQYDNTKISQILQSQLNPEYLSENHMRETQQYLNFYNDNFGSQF
Description: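 Universal 'all 10-mer' protein binding microarrays (Agilent AMADID 015681) probed with GST-tagged S. cerevisiae TFs (full-length or DBD) made by in vitro transcription/translation (PURExpress), about 100-200 nM. Bound TF was detected with fluorescent anti-GST. Each ungapped 8-mer (which stands for itself and its reverse complement) is scored by the PBM enrichment score (E-score), a modified Wilcoxon-Mann-Whitney statistic from -0.5 to +0.5, computed with the Universal PBM Analysis Suite. Scale: above 0.35 generally sequence-specific binding.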

Sequence | PBM E-score
CGTAAACA | 0.156
GTATGTGA | 0.0774
GTCAGGTA | 0.0267
ATAGAGCA | 0.0151
ACGCTACG | -0.0233
GACGTAGC | -0.149
CTGTCCTC | -0.168
CATATGTA | 0.119
AGAGAATA | 0.0574
AGTAATTC | 0.104
AGTCGAGC | -0.138
AAACATTG | 0.103
CACATCGG | -0.152
AGCATCTA | -0.18
GGCACCTA | 0.132
CTATCCAA | -0.0659
AATAAGGG | -0.186
AACATCGG | -0.113
TCCCTTCA | -0.237
ACACCCAG | -0.32
ATTTAAGC | 0.0936
CGAATCCA | -0.106

Sequence | PBM E-score
TGTATACA | 0.0489
GCAGCCTA | -0.0881
GTGCATTA | 0.171
CGCTATTC | 0.146
AATGCCTC | 0.308
CAGCCGTC | 0.175
ATTGTATG | 0.0554
ACGAGTTA | 0.0777
CCCCAAGA | -0.0379
GCAGCTTA | -0.0128
AAATTGTA | 0.0555
TAGTAACA | 0.0813
TAATGGTA | 0.0156
CCTCCCAC | -0.132
GTCTAGAC | -0.158
TAATTGCA | 0.0783
ATACCGCC | 0.1
ATCTGGCC | -0.278
GTCTTGTA | 0.0211
AGCACGAA | 0.0412
CCACCCAC | 0.0467
AGTGAGGC | 0.203

Sequence | PBM E-score
GCCTGCTA | -0.0816
AGGTTCTC | -0.122
CTTCGGCA | 0.24
AGATTACC | 0.0788
ACCAAATC | 0.047
CTTATGCA | 0.0959
GTAAGTAC | 0.0755
AAGCGTAA | 0.014
CTCCATGA | 0.0364
GAGACTTA | -0.276
AGCCATAA | -0.101
AGACATCC | -0.27
CATTTTAC | 0.271
ATTCATTC | 0.0613
AGGCCCCT | -0.211
CACGGACA | 0.177
TACTGCGA | -0.159
GACATATA | 0.0496
TCAAACGA | 0.228
ATTCCTAC | 0.0636
AAGTCAAT | 0.13
ATTATCCG | 0.171

Sequence | PBM E-score
GTGTGCCA | 0.113
AAGCGCTC | -0.0213
CTGTGAGA | -0.0467
CGTTACTA | 0.0784
CTCTCACA | 0.1
CCGGAGGC | -0.176
AGTCACGA | -0.104
CAGGTTTC | -0.0256
AGAACTCG | 0.0724
CCGGGTTA | -0.185
CGTTCTGA | -0.0956
GCAGTTCA | 0.0378
AGCGCTAT | 0.0464
AAGACCGA | -0.107
AACGTTAT | -0.04
ATTGCGGG | -0.011
ACGTAACT | -0.261
CCGGATCG | -0.23
GGTCGGGA | -0.152
ACATACCA | -0.116
CTCATTCC | -0.0804
CGGCAATC | 0.332

Sequence | PBM E-score
CGCATGGC | 0.298
GAAAGACA | 0.209
AGAGCAAC | -0.121
GATGACGC | -0.00207
AGTATTTG | -0.0109
AACCGCCT | 0.0265
AGCAGGTG | 0.139
ACGATTAT | -0.0115
AGGAAATG | 0.108
TAAGTAAA | 0.16
AACAGCTC | 0.00991
GCGCCCCA | 0.353
ATGTCGCC | 0.266
AAAGTTAG | 0.0741
CATACCAG | -0.177
GCTGGTTA | -0.0873
ATATGAAG | 0.0152
CACTAGCC | 0.156
ATGTGCAA | 0.0181
CACAAAAA | 0.166
CGAGCCAG | -0.0845
CCGTACAA | 0.35
